Drawing on PubChem BioAssay AID1240 (Sanford-Burnham Center for Chemical Genomics, 2008), this text covers displacement for 107 compounds.

SMILES strings stand for the structures. Hit rate of the full screen: of about 50,000 compounds, about 800 (1.6%) showed an effect of 50% or more. Some of the results follow.

In this assay the target is Bcl-2-like protein 10 (Homo sapiens) (UniProt Q9HD36). Kind of assay: TR3 peptide-Bcl-B binding displacers, biochemical primary FP assay, phenotype converters (AID 1240).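 Note: 0% = Bcl-B with tracer peptide and DMSO and 100% = tracer peptide lacking Bcl-B.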 Particulars: GST-Bcl-B / FITC-TR3 peptide fluorescence polarization; stronger effect = higher value; compound at 3.75 mg/L. In general terms: Fluorescence polarisation rises when a labelled molecule tumbles more slowly, as on binding a larger partner.
UniProt Q9HD36, sequence (Q9HD36 whole entry, looked up): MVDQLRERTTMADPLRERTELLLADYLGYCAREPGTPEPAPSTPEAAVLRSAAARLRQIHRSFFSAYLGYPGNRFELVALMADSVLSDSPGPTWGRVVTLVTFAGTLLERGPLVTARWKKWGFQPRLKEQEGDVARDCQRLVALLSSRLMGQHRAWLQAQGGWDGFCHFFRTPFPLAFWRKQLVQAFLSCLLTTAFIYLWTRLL
`CCN(CC)c1ccc(NC(=O)c2ccc(Br)o2)cc1`: the displacement turned out to be 6.2%.

Consider `Cc1cc(C)cc(N2C(=O)NC(=O)/C(=C\c3ccc(I)o3)C2=O)c1`, for which the displacement came to 28.7%.

Regarding `COc1cc(C2NC(=S)NC(C)=C2C(=O)Nc2ccc(Cl)cc2)ccc1O` (configuration not stated), the displacement was found to be 11.1%.

For the compound `CCOc1ccc(NC(=O)c2cnn(-c3ccccc3)c2NC(=O)c2ccc(C)cc2)cc1`, the displacement came out at 14.4%.

On to `O=C1NC(=O)N(c2ccc(Cl)cc2)C(=O)/C1=C/c1ccc(-c2ccc(Cl)cc2[N+](=O)[O-])o1`, for which the displacement came to 10.6%.

`O=[N+]([O-])c1cccc(S(=O)(=O)NCc2ccc3c(c2)OCO3)c1`: the displacement came to 3.8%.

For the compound `COc1cc(C(=O)N2CCN(C3CCCC3)CC2)cc(OC)c1OC`, the displacement is -14%.

For the compound `O=C1NC(=S)NC(=O)C1=Cc1cc(Cl)c(OCc2ccc(C(=O)O)cc2)c(Cl)c1`, the displacement amounted to 8.5%.

In the case of `CCOC(=O)c1cnc2cc(-c3cccs3)[nH]n2c1=O`, the displacement stood at 11.2%.

In the case of `O=C(COc1ccccc1Cl)NNC(=O)c1ccc2ccccc2c1`, the displacement was -9.4%.

As to `Cc1cc(Cl)ccc1OCCCN1CCOCC1`, the displacement was determined as 12.4%.

For the compound `CC(=O)Nc1ccc(Oc2ccc(C(=O)O)c(C(=O)O)c2)cc1`, the displacement is 0.3%.

On to `Cc1n[nH]c(C)c1CCCCCCOc1cccc(Cl)c1`, for which the displacement came out at 11.1%.

For the compound `CC(C)Cn1c(CCCN2C(=O)c3ccccc3C2=O)nc2ccccc2c1=O`, the displacement amounted to 1.7%.

As to `O=C(Nc1scc(-c2ccccc2)c1C(=O)O)c1ccccc1F`, the displacement amounted to 16.4%.

As for `C=CCn1c2ccccc2c2nnc(SCC(=O)N=C3NC(=O)CS3)nc21`, the displacement came out at 49.7%.

As to `CC(C)COc1ccc(C(=O)Nc2ccccc2[N+](=O)[O-])cc1`, the displacement turned out to be 3.7%.

In the case of `O=C1NC(=O)N(c2ccccc2)C(=O)/C1=C\c1ccc(-c2ccc([N+](=O)[O-])cc2)o1`, the displacement was 130%.

Consider `N#CCC(=O)NNC(=O)COc1cccc2ccccc12`, for which the displacement was -20%.

Turning to `Cc1cc(/C=C2\C(=O)NC(=S)N(c3cccc(Br)c3)C2=O)c(C)n1C`, the displacement stood at 14.5%.

For `COc1cc(NC(=O)c2ccccc2)c(Cl)cc1NC(=O)c1ccc(Cl)c(Cl)c1`, the displacement was determined as 10%.

Regarding `O=[N+]([O-])c1ccc(Cl)cc1NCCNS(=O)(=O)c1ccc2ccccc2c1`, the displacement is 13.8%.

On to `CCCc1cc(=O)n2[nH]c(-c3ccc(C)cc3)cc2n1`, for which the displacement stood at 9.9%.

Regarding `CCC(NC(C)=O)c1ccc(Br)cc1` (configuration not stated), the displacement amounted to 6.6%.

For `Cc1ccccc1NC(=O)/C(=C/c1ccc(Br)cc1)NC(=O)c1ccccc1`, the displacement is -7.5%.

As to `O=C(Nc1ccc(OC(F)(F)F)cc1)c1ccc(Br)o1`, the displacement was found to be 33.6%.

On to `COc1ccccc1CNC(=O)COc1ccc2ccccc2c1`, for which the displacement stood at 29.5%.

Take `CCC(=O)Nc1ccc2c(c1)C(=O)N(C)C2=O`: the displacement was determined as 13.6%.

Turning to `COc1ccccc1OCCOc1ccc(Cl)cc1/C=C1/SC(=S)N(C)C1=O`, the displacement is 2.3%.

As to `CCOc1cc(C=C2C(=O)NC(=O)NC2=O)ccc1OCCOc1ccc(C(C)(C)C)cc1`, the displacement turned out to be 10%.

For `O=C(/C=C/c1ccc2c(c1)OCO2)N1CCC(CN2C(=O)c3cccc4cccc(c34)C2=O)CC1`, the displacement turned out to be 12.4%.

In the case of `O=C1NC(=O)N(c2cccc(Br)c2)C(=O)/C1=C/c1cccs1`, the displacement amounted to 3.8%.

For the compound `C/C(NN1CCN(C)CC1)=C(\C#N)C(=O)NCc1ccccc1`, the displacement was -10.8%.

Consider `Cc1ccccc1NC(=O)CC1SC(N)=NC1=O` (configuration not stated), for which the displacement was -14.5%.

Take `COc1ccc(CNCc2cccc(Oc3ccccc3)c2)cc1`: the displacement was -23.6%.

As to `O=C1/C(=C\c2ccc(O)cc2)SC(=S)N1c1cccc(C(F)(F)F)c1`, the displacement was -0.2%.

For the compound `COc1ccc(/C=N/NC(=O)C2CC(=O)N(c3ccc(Cl)cc3)C2)cc1` (configuration not stated), the displacement is -1%.

Take `Cc1oc2c(CN3CCN(C)CC3)c(O)ccc2c(=O)c1-c1nc2ccccc2s1`: the displacement worked out at 11.7%.

Take `COc1cc(/C=C2/C(=O)NC(=O)N(c3ccc(C(C)C)cc3)C2=O)cc(Br)c1O`: the displacement was -25.3%.

As for `Cc1ccc(N2CC(C(=O)Nc3ccccn3)CC2=O)cc1` (configuration not stated), the displacement was found to be 11.4%.

Regarding `COc1ccc(-c2cc(C(F)(F)F)n3nc(C(=O)Nc4cc(C)ccc4O)cc3n2)cc1OC`, the displacement came out at 2.3%.

For `CCCOc1cccc(C(=O)Nc2cccc(-c3nc4ccccc4s3)c2C)c1`, the displacement was 5.7%.

For `Cc1cc(C)nc(Nc2nc3ccccc3c(=O)[nH]2)n1`, the displacement is -0.2%.

Turning to `C(=N\Nc1nc(Nc2ccccc2)nc(N2CCOCC2)n1)/c1ccc2ccccc2c1`, the displacement amounted to 13.9%.

In the case of `Cc1cc(C)c[n+](C(C)C(=O)c2ccc(Cl)cc2)c1` (configuration not stated), the displacement worked out at 3.9%.

As for `COC(=O)c1cc(C(=O)Nc2ccccc2OC)cc([N+](=O)[O-])c1`, the displacement came to 12.9%.

For the compound `CCOc1cc(C(=O)NCCc2ccccc2)cc(OCC)c1OCC`, the displacement was -7.2%.

Turning to `COc1ccccc1N1C(=O)c2cccc3c(N4CCN(C)CC4)ccc(c23)C1=O`, the displacement came out at 157%.

For the compound `O=C1/C(=C\c2cccs2)SC(=S)N1c1cccc(Br)c1`, the displacement was 20.8%.

With `Cc1ccccc1NC(=S)NC(=O)c1ccc(Cl)cc1`, the displacement is -6.9%.

Turning to `CC1CN(C(=O)c2ccccc2C(=O)c2ncc[nH]2)CC(C)O1` (configuration not stated), the displacement was -0.9%.

Turning to `Cc1ccsc1/C=C1/SC(N2CCCC2)=NC1=O`, the displacement was found to be 1.4%.

Consider `CCOc1cccc(C(=O)Nc2nc(-c3ccc(F)cc3F)cs2)c1`, for which the displacement is -8.7%.

Turning to `O=C(Cc1n[nH]c(=O)[nH]c1=O)N/N=C\c1ccccc1F`, the displacement is -2.3%.

As for `CC(=O)c1sc(NC(=O)c2ccoc2C)nc1C`, the displacement came out at 6%.

As to `CC1CCN(C(=O)c2ccc(Cl)cc2Cl)CC1`, the displacement was 18.6%.

For the compound `Cc1ccc(NC2=CC(c3ccccc3[N+](=O)[O-])N(c3ccc(C)cc3)C2=O)cc1` (configuration not stated), the displacement came out at 3.8%.

Consider `N/C(=N\OC(=O)c1ccccc1F)c1cccc([N+](=O)[O-])c1`, for which the displacement is -3.2%.

On to `CC(=O)NCCc1c(C)n(Cc2ccccc2)c2ccccc12`, for which the displacement came to 20.2%.

With `CCN1C(=O)/C(=C/c2cc3c(cc2Br)OCO3)SC1=S`, the displacement turned out to be 1.7%.

Consider `COc1cc(-c2csc(/C(C#N)=C/Nc3cccc(F)c3)n2)ccc1O`, for which the displacement came out at 0.6%.

Regarding `CC(C)c1ccc(/C=C(\NC(=O)c2ccccc2)C(=O)NCCCN(C)C)cc1`, the displacement amounted to 10.5%.

`Cc1cccc(-c2cc(NC(=O)c3ccc(Br)cc3)n[nH]2)c1`: the displacement was determined as 9.4%.

Consider `Fc1cccc(Cl)c1/C=N/Nc1nc2ccccc2s1`, for which the displacement is -5.5%.

For the compound `O=C(NCCOc1ccccc1Cl)c1cc(F)c(F)cc1Cl`, the displacement is -18.9%.

For the compound `Cc1ccc(OCC(=O)N2CCN(c3ccc([N+](=O)[O-])cc3Cl)CC2)cc1C`, the displacement was determined as 5.7%.

Take `O=C1NC(=O)N(c2ccccc2)C(=O)/C1=C\c1ccccc1I`: the displacement was -6.5%.

As to `CCCOc1ccc(N2C(=O)CC(N3CCN(c4ccccc4)CC3)C2=O)cc1` (configuration not stated), the displacement was determined as 6.3%.

For `Cc1ccc(-n2[nH]c(C)c(/C=N/NC(=O)c3ccccc3[N+](=O)[O-])c2=O)cc1C`, the displacement is 1.1%.

Consider `COc1ccc(CCC(=O)Nc2cc(Cl)ccc2Cl)cc1`, for which the displacement was -4.5%.

`CCOC(=O)c1c(C)nc2c(c1-c1ccc(Cl)cc1Cl)C(=O)CC(C)(C)C2`: the displacement was -4.4%.

As to `CC(C)(O)P(=O)(c1ccccc1)c1ccccc1`, the displacement came to 16.2%.

For `COc1ccc(NC(=O)CN(c2ccc(C(C)C)cc2)S(=O)(=O)c2ccccc2)cc1`, the displacement is -1.3%.

Regarding `CCOC(=O)c1ccccc1NC(=O)c1ccc(Cl)cc1Cl`, the displacement was -10.4%.

For the compound `CC1(C)Nc2ccccc2N(CCC(=O)N2CCOCC2)C1=O`, the displacement was determined as 9%.

Consider `Cc1c(C)c2ccc(OC(C)C)cc2oc1=O`, for which the displacement came out at 9.4%.

With `COC(=O)c1cc(NC(=O)c2c(-c3ccccc3Cl)noc2C)cc(C(=O)OC)c1`, the displacement was 10.5%.

For `COc1ccc(N2C(=O)/C(=C/c3cc(Cl)cc(Cl)c3O)C(=O)NC2=S)cc1`, the displacement is -8.9%.

Turning to `COC(=O)C1=C(C)NC2=C(C(=O)CC(C)(C)C2)C1c1ccc(C)o1` (configuration not stated), the displacement is -1.7%.

On to `Cc1nn(-c2ccc(Cl)c(Cl)c2)c(C)c1-c1cccc([N+](=O)[O-])c1`, for which the displacement was determined as 13.1%.

Regarding `O=C(CC1(O)C(=O)Nc2ccc(Br)cc21)c1ccco1` (configuration not stated), the displacement was -27%.

As to `COc1ccc(C(=O)Nc2ccc(NC(=O)c3ccc(Br)cc3)cc2)cc1[N+](=O)[O-]`, the displacement was -5.7%.

Take `COc1c(Br)cc(Cl)cc1/C=C1\C(=O)NC(=S)N(c2ccc(C)cc2)C1=O`: the displacement is -9.7%.

As to `Cc1cc(C)nc(SCC(=O)c2cccs2)n1`, the displacement came out at 11.9%.

As for `Nc1nonc1C(=O)OCc1ccc(Cl)cc1Cl`, the displacement was -8.1%.

Regarding `N#C/C(=C/c1ccc(-c2ccc([N+](=O)[O-])cc2)o1)C(=O)N1CCOCC1`, the displacement came out at 0.9%.

`COc1ccc([N+](=O)[O-])cc1-c1ccc(/C=C2\C(=O)NC(=O)N(c3ccc(Cl)cc3)C2=O)o1`: the displacement was found to be 25.1%.

For the compound `Cc1cc(C(O)(C(F)(F)F)C(F)(F)F)cc(C)c1N`, the displacement was -2.1%.

On to `Cc1ccc(/C=C/C(=O)Nc2cccc(Br)c2)o1`, for which the displacement came to 10.9%.

`COc1ccc(CNc2ccc3c(c2)ncn3-c2ccc(OC)cc2)cc1`: the displacement is -1.1%.

With `CC(=O)c1ccc(NC2=NC(C)(C)Cc3ccccc32)cc1`, the displacement was -3.5%.

`COc1ccc(CN2CCN(Cc3cc(Br)ccc3OC)CC2)c(OC)c1`: the displacement is -7.5%.

Regarding `O=C(N/N=C/c1cccc2ccccc12)C(=O)N1CCCC1`, the displacement turned out to be 11.3%.

As for `CC(C)OC(=O)C1C(=O)CC(C)(O)C(C(=O)OC(C)C)C1c1ccc(C(C)C)cc1` (configuration not stated), the displacement amounted to 4.4%.

As for `CC(C)CNC(=O)c1cccc(NC(=O)C(c2ccccc2)c2ccccc2)c1`, the displacement is -7.9%.

In the case of `COc1ccc(CN2CCN(CC3CC=CCC3)CC2)c(OC)c1OC` (configuration not stated), the displacement was -3.7%.

For the compound `CN1CCN(Cn2c(O)c(N=NC(=O)c3cccnc3)c3ccccc32)CC1`, the displacement was -11.9%.

As for `CCOc1cc(/C=N/NC(=O)c2ccccn2)ccc1OC(=O)c1ccc(F)cc1`, the displacement was 3.8%.

For the compound `Cc1no[n+]([O-])c1COc1ccccc1/C=C1\NC(=S)NC1=O`, the displacement is -3.9%.

On to `O=C(COc1ccccc1[N+](=O)[O-])Nc1cccnc1`, for which the displacement amounted to 3.9%.

In the case of `CCOC(=O)C(=CNc1ccc2c(c1)OCCO2)C(=O)OCC`, the displacement was -1.7%.

With `CCOC(=O)c1c(NC(=O)c2ccc([N+](=O)[O-])cc2)sc(C(=O)N2CCCCCC2)c1C`, the displacement amounted to 1.5%.

As for `Cc1cc(OCC(=O)Nc2cc(Cl)cc(Cl)c2)ccc1Br`, the displacement was found to be 10.8%.

With `COc1ccc(CCNC(=O)c2sc3cc(C)ccc3c2Cl)cc1`, the displacement was -14.9%.

As for `CCOC(=O)C(CCOCCOc1cc(C)c(Cl)c(C)c1)C(=O)OCC`, the displacement turned out to be 7.3%.

Regarding `Cc1ccccc1OCCSc1nc2ccccc2c(=O)[nH]1`, the displacement turned out to be 1.8%.

With `CSc1ccc(S(=O)(=O)N(CC(=O)Nc2cc(C)cc(C)c2)c2ccc(C)cc2)cc1`, the displacement worked out at 13.6%.
